Experimental data taken from PubChem BioAssay AID686978 (National Center for Advancing Translational Sciences (NCATS), 2013).
Screen size: about 420,000 compounds; about 64,000 (15%) were called active. This list was built around the results that the source calls inconclusive (neither active nor inactive); the mix of calls is not that of the screen. The call rests on the fitted dose curve; in most records, active means well fitted inhibition curve with a large enough effect; inconclusive means small, poorly fitted or top-dose-only effect; inactive means flat fitted curve, though single readings scatter. No potency is given beside an inconclusive call; the fits are too rough.
On the % scale 0 is the no-effect control and ±100 the full control effect; potency means the concentration at half of the fitted maximal effect; tags describe the fitted curve by direction and shape.

Test: qHTS for Inhibitors of human tyrosyl-DNA phosphodiesterase 1 (TDP1): qHTS in cells in absence of CPT; further: nearly all actives have a fitted effect of over 55% in size
Settings: DT40 Tdp1-/- hTDP1 cells, no CPT, ATP luminescence, 48 h; activity change, negative = growth inhibition: at 46.2 µM (top of the series) unless noted
Summary of the method: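 Growth kinetics read by CellTiter-Glo luminescence after ≥48 hr at 37 °C. Cells: DT40 Tdp1-/- stably carrying human TDP1, 400 per well, compound exposure in the absence of CPT (DMSO vehicle).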
With `Cc1ccc(NC(=O)CCc2ccc(S(=O)(=O)N3CCOCC3)cc2)c(O)c1` the Potency was inconclusive [inhibitor, single point].
With `CC1CCCCN1S(=O)(=O)c1cc2c3c(c1)CC(=O)N3CCC2` (stereo not drawn) the Potency was inconclusive [inhibitor, single point].
In the case of `Cn1c(C(=O)N2CCc3ccccc3C2)cc2oc3ccccc3c21`, the Potency is reported as inconclusive [inhibitor, single point].
In the case of `Cc1ccc(NC(=S)N/N=C/c2ccc([N+](=O)[O-])s2)cc1`, the Potency is reported as inconclusive [inhibitor, single point].
For `CCOC(=O)c1cc(C)n(-n2cnnc2)c1C`, the Potency was “inactive”.
In the case of `CSCCC(NC(=O)c1ccc(Cl)cc1Cl)C(=O)NCc1ccncc1` (stereo not drawn), the activity change, negative = growth inhibition is reported as inconclusive: -31.5% [inhibitor].
With `CCCOc1ccccc1C1NC(=O)NC(C)=C1C(=O)OCCOC(C)C` (stereo not drawn) the Potency was inconclusive [inhibitor, single point].
In the case of `C[C@H](CO)N1C[C@H](C)[C@@H](CN(C)C(=O)c2ccc(N3CCN(C)CC3)cc2)OCc2cnnn2CCCC1=O`, the Potency is reported as “inactive”.
For `COc1ccc(-n2c(CCc3ccccc3)nnc2SCC(=O)c2ccc(Cl)cc2)cc1`, the Potency was inconclusive [inhibitor, single point].
In the case of `Cc1ccc(S(=O)(=O)n2c(C)nc3cc(C)ccc32)cc1`, the Potency is reported as “inactive”.
In the case of `Cc1cc(C)c2c(c1)OC(=O)CC2c1ccccc1C` (stereo not drawn), the Potency is reported as inconclusive [inhibitor, single point].
With `O=C(Nc1ccccc1)c1ccc(-n2nncc2-c2ccccc2)cc1` the Potency was inconclusive [inhibitor, partial curve].
For `CC(=O)NN1C(=O)/C(=C\c2ccc(Cl)cc2)SC1=S`, the Potency was inconclusive [inhibitor, single point].
For `CSc1ncnc2c1ncn2CCCN(C)CCc1ccccn1`, the Potency was “inactive”.
With `Nc1ccc2c(c1)ncn2CCCn1cnc2cc(N)ccc21` the Potency was inconclusive [inhibitor, single point].
In the case of `O=C(NNC(=O)c1cc(-c2cccnc2)nc2ccccc12)Nc1ccc(Cl)cc1`, the Potency is reported as inconclusive [inhibitor, single point].
For `COC(=O)c1ccc(C(=O)N2CCCC(C)(C(=O)NS(=O)(=O)C3CC3)C2)cc1` (stereo not drawn), the Potency was active: 1.46 µM.
In the case of `COc1c(Br)cc([N+](=O)[O-])c(OC)c1C(=O)NC(=O)Nc1c(Cl)cccc1Cl`, the Potency is reported as inconclusive [inhibitor, single point].
With `O=C(Cn1c(=O)n(Cc2ccc(C(=O)NCc3ccccc3Cl)cc2)c(=O)c2ccccc21)Nc1ccc(F)c(Cl)c1` the Potency was “inactive”.
In the case of `Cc1ccc(-c2nc(CS(=O)(=O)CC(=O)NCc3ccccc3Cl)c(C)o2)cc1`, the Potency is reported as inconclusive [inhibitor, single point].
For `COc1ccc(OC)c(C2C3=C(N=c4s/c(=C\c5cccc(O)c5)c(=O)n42)c2ccccc2CC3)c1` (stereo not drawn), the Potency was active: 25.9 µM.
With `O=[N+]([O-])c1ccc(N2CCCC2)cc1NC1CC1` the Potency was inconclusive [inhibitor, single point].
In the case of `Cc1cccc(CNC(=O)CN2C(=O)CCCc3ccccc32)c1`, the Potency is reported as “inactive”.
For `Cc1cc2nc(-c3ccc(F)cc3)c(Cc3ccccc3)n2c(C)c1Br`, the Potency was active: 20.6 µM.
With `C=CCOc1cccc(C(=O)N2CCCC(Nc3ccc(F)cc3)C2)c1` (stereo not drawn) the Potency was inconclusive [inhibitor, partial curve, poor fit].
With `CCCCn1nc(NC(=O)CC)c2cc3cc(OC)ccc3nc21` the Potency was inconclusive [inhibitor, single point].
In the case of `CCC1CCCCN1C(=O)c1cc(COc2ccc3ncccc3c2)on1` (stereo not drawn), the Potency is reported as active: 1.03 µM.
In the case of `CCOC(=O)c1c(NC(=O)c2ccccc2)sc2c1CCc1ccccc1-2`, the Potency is reported as inconclusive [inhibitor, single point].
In the case of `CCCN1CCC(=O)N([C@H](CSc2ccc(OC)cc2)c2ccccc2)CC1`, the Potency is reported as active: 16.4 µM.
For `CCN(C(=O)COC(=O)/C=C/c1cccc(Br)c1)C1CCS(=O)(=O)C1` (stereo not drawn), the Potency was “inactive”.
For `O=C(O)CC1CC(O)CCC1=O` (stereo not drawn), the Potency was “inactive”.
With `COCc1nnc(NC(=O)c2cc3ccccc3o2)s1` the Potency was inconclusive [inhibitor, single point].
In the case of `Cc1ccc(CN2CCN(C3CCOCC3)CC2CCO)cc1` (stereo not drawn), the Potency is reported as “inactive”.
With `COc1cccc(C(=O)Nc2ccccc2-c2nc3ccccc3s2)c1` the Potency was inconclusive [inhibitor, single point].
For `Cc1ccc(S(=O)(=O)/N=C(/Nc2ccc(F)cc2F)c2ccc(F)cc2)cc1`, the Potency was “inactive”.
With `CCc1cc(C(=O)N2CCCC(C(=O)c3ccc(Oc4ccccc4)cc3)C2)n(C)n1` (stereo not drawn) the Potency was active: 14.6 µM.
In the case of `CC1=C(C(=O)Nc2cccc(C(F)(F)F)c2)C2(CCCCC2)OC1=O`, the Potency is reported as active: 16.4 µM.
For `O=C(CCn1cccn1)Nc1ccc2c(c1)OCCO2`, the Potency was “inactive”.
With `COc1cc2c(C#CCCO)c(-c3ccsc3)oc(=O)c2cc1OC` the Potency was active: 8.2 µM.
With `COC(=O)c1c(NC(=O)c2ccc(N(C)S(=O)(=O)c3ccc(C)cc3)cc2)sc2c1CCCC2` the Potency was inconclusive [inhibitor, partial curve].
For `CCOc1ccc(NC(=O)Cc2ccc(S(=O)(=O)N3CCCCC3)cc2)cc1OCC`, the Potency was inconclusive [inhibitor, single point].
For `CCNC(=O)CCSc1nc2cc(Cl)ccc2o1`, the activity change, negative = growth inhibition was inconclusive: -30.5% [inhibitor].
For `CN(C)c1cccc(Oc2nc3c(c(=O)n(C)c(=O)n3C)n2C)c1`, the Potency was “inactive”.
In the case of `NC(N)=NCCC[C@H](N)C(=O)O`, the Potency is reported as “inactive”.
In the case of `O=S(=O)(c1ccc2[nH]c3c(c2c1)CCCCC3)N1CCN(c2cccc(Cl)c2)CC1`, the Potency is reported as active: 11.6 µM.
In the case of `COc1ccccc1NC(=O)N(Cc1ccco1)Cc1cc2ccc(C)c(C)c2[nH]c1=O`, the Potency is reported as active: 4.11 µM.
With `Cc1ccccc1CNC(=O)c1sc2ncnc(N(C)C3CCCCC3)c2c1C` the Potency was active: 20.6 µM.
In the case of `Cc1oc(-c2cccc(Cl)c2)nc1CN1CCCC(C(=O)NCc2ccc(Cl)cc2)C1` (stereo not drawn), the Potency is reported as active: 7.31 µM.
